# In the supplement of paper PMC8728848:
# Some of the results follow.
# B1: RNase 1 (Homo sapiens) (protein)
# chain: KESRAKKFQRQHMDSDSSPSSSSTYCNQMMRRRNMTQGRCKPVNTFVHEPLVDVQNVCFQEKVTCKNGQGNCYKSNSSMHITDCRLTNGSRYPNCAYRTSPKERHIIVACEGSPYVPVHFDASVEDST
# Tests used:
# Assay in all cases: glycan array binding signal (z-score within array); higher = stronger binding
# Conditions in all cases: glycan notation: IUPAC condensed, linker removed
# [1] = biological target: Neu5Ac(a2-3)Gal(b1-3)GalNAc(b1-3)Gal(a1-4)Gal(b1-4)Glc
# In short: (§1)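 Glycan array binding is given as a within-array Z-score, which can be read as non-binding when negative. The arrays, 3228 of them, came from the Consortium for Functional Glycomics database and were retained only where the protein sequence was available. Z-scores were averaged across arrays of the same protein sequence at different concentrations or buffers and across linkers.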
# [2] = biological target: Neu5Ac(a2-3)Gal(b1-3)GalNAc(b1-4)[Neu5Ac(a2-3)]Gal(b1-4)Glc
# In short: as §1
# [3] = biological target: Neu5Ac(a2-3)Gal(b1-3)GalNAc6S
# In short: as §1
# [4] = biological target: Neu5Ac(a2-3)Gal(b1-3)GlcNAc
# In short: as §1
# [5] = biological target: Neu5Ac(a2-3)Gal(b1-3)GlcNAc(b1-3)Gal(b1-4)GlcNAc
# In short: as §1
# [6] = biological target: Neu5Ac(a2-3)Gal(b1-3)GlcNAc6S
# In short: as §1
# [7] = biological target: Neu5Ac(a2-3)Gal(b1-3)[Fuc(a1-4)]GlcNAc
# In short: as §1
# [8] = biological target: Neu5Ac(a2-3)Gal(b1-3)[Fuc(a1-4)]GlcNAc(b1-3)Gal(b1-4)[Fuc(a1-3)]GlcNAc
# In short: as §1
# [9] = biological target: Neu5Ac(a2-3)Gal(b1-3)[Neu5Ac(a2-3)Gal(b1-4)]GlcNAc
# In short: as §1
# [10] = biological target: Neu5Ac(a2-3)Gal(b1-3)[Neu5Ac(a2-6)]GalNAc
# In short: as §1
# [11] = biological target: Neu5Ac(a2-3)Gal(b1-4)Glc
# In short: as §1
# [12] = biological target: Neu5Ac(a2-3)Gal(b1-4)GlcNAc
# In short: as §1
# [13] = biological target: Neu5Ac(a2-3)Gal(b1-4)GlcNAc(b1-3)Gal(b1-4)GlcNAc
# In short: as §1
# [14] = biological target: Neu5Ac(a2-3)Gal(b1-4)GlcNAc(b1-3)Gal(b1-4)GlcNAc(b1-3)Gal(b1-4)GlcNAc
# In short: as §1
# [15] = biological target: Neu5Ac(a2-3)Gal(b1-4)GlcNAc(b1-3)Gal(b1-4)[Fuc(a1-3)]GlcNAc
# In short: as §1
# [16] = biological target: Neu5Ac(a2-3)Gal(b1-4)GlcNAc6S
# In short: as §1
# [17] = biological target: Neu5Ac(a2-3)Gal(b1-4)[Fuc(a1-3)]GlcNAc
# In short: as §1
# [18] = biological target: Neu5Ac(a2-3)Gal(b1-4)[Fuc(a1-3)]GlcNAc(b1-3)Gal
# In short: as §1
# [19] = biological target: Neu5Ac(a2-3)Gal(b1-4)[Fuc(a1-3)]GlcNAc(b1-3)Gal(b1-4)GlcNAc
# In short: as §1
# [20] = biological target: Neu5Ac(a2-3)Gal(b1-4)[Fuc(a1-3)]GlcNAc(b1-3)Gal(b1-4)[Fuc(a1-3)]GlcNAc(b1-3)Gal(b1-4)[Fuc(a1-3)]GlcNAc
# In short: as §1
# [21] = biological target: Neu5Ac(a2-3)Gal(b1-4)[Fuc(a1-3)]GlcNAc6S
# In short: as §1
# [22] = biological target: Neu5Ac(a2-3)Gal6S(b1-4)GlcNAc
# In short: as §1
# [23] = biological target: Neu5Ac(a2-3)Gal6S(b1-4)[Fuc(a1-3)]GlcNAc
# In short: as §1
# [24] = biological target: Neu5Ac(a2-3)GalNAc
# In short: as §1
# [25] = biological target: Neu5Ac(a2-3)GalNAc(b1-4)GlcNAc
# In short: as §1
# [26] = biological target: Neu5Ac(a2-3)[GalNAc(b1-4)]Gal(b1-4)Glc
# In short: as §1
# [27] = biological target: Neu5Ac(a2-3)[GalNAc(b1-4)]Gal(b1-4)GlcNAc
# In short: as §1
# [28] = biological target: Neu5Ac(a2-3)[Neu5Ac(a2-6)]GalNAc
# In short: as §1
# [29] = biological target: Neu5Ac(a2-6)Gal(b1-4)GlcNAc
# In short: as §1
# [30] = biological target: Neu5Ac(a2-6)Gal(b1-4)GlcNAc(b1-2)Man(a1-3)[Neu5Ac(a2-6)Gal(b1-4)GlcNAc(b1-2)Man(a1-6)]Man(b1-4)GlcNAc(b1-4)GlcNAc
# In short: as §1
# [31] = biological target: Neu5Ac(a2-6)Gal(b1-4)GlcNAc(b1-3)Gal(b1-4)GlcNAc
# In short: as §1
# [32] = biological target: Neu5Ac(a2-6)Gal(b1-4)GlcNAc(b1-3)Gal(b1-4)[Fuc(a1-3)]GlcNAc(b1-3)Gal(b1-4)[Fuc(a1-3)]GlcNAc
# In short: as §1
# [33] = biological target: Neu5Ac(a2-6)Gal(b1-4)GlcNAc6S
# In short: as §1
# [34] = biological target: Neu5Ac(a2-6)GalNAc
# In short: as §1
# [35] = biological target: Neu5Ac(a2-6)GalNAc(b1-4)GlcNAc
# In short: as §1
# [36] = biological target: Neu5Ac(a2-8)Neu5Ac
# In short: as §1
# [37] = biological target: Neu5Ac(a2-8)Neu5Ac(a2-3)Gal(b1-4)Glc
# In short: as §1
# [38] = biological target: Neu5Ac(a2-8)Neu5Ac(a2-3)[GalNAc(b1-4)]Gal(b1-4)Glc
# In short: as §1
# [39] = biological target: Neu5Ac(a2-8)Neu5Ac(a2-8)Neu5Ac
# In short: as §1
# [40] = biological target: Neu5Ac(a2-8)Neu5Ac(a2-8)Neu5Ac(a2-3)Gal(b1-4)Glc
# In short: as §1
# [41] = biological target: Neu5Ac(a2-8)Neu5Ac(a2-8)Neu5Ac(a2-3)[GalNAc(b1-4)]Gal(b1-4)Glc
# In short: as §1
# [42] = biological target: Neu5Ac(a2-8)Neu5Ac(a2-8)Neu5Ac(a2-8)Neu5Ac(a2-3)[GalNAc(b1-4)]Gal(b1-4)Glc
# In short: as §1
# [43] = biological target: Neu5Ac9Ac(a2-6)Gal(b1-4)GlcNAc
# In short: as §1
# [44] = biological target: Neu5Gc(a2-3)Gal(b1-3)GlcNAc
# In short: as §1
# [45] = biological target: Neu5Gc(a2-3)Gal(b1-3)[Fuc(a1-4)]GlcNAc
# In short: as §1
# [46] = biological target: Neu5Gc(a2-3)Gal(b1-4)Glc
# In short: as §1
# [47] = biological target: Neu5Gc(a2-3)Gal(b1-4)GlcNAc
# In short: as §1
# [48] = biological target: Neu5Gc(a2-3)Gal(b1-4)[Fuc(a1-4)]GlcNAc
# In short: as §1
# [49] = biological target: Neu5Gc(a2-6)Gal(b1-4)GlcNAc
# In short: as §1
# [50] = biological target: Neu5Gc(a2-6)GalNAc
# In short: as §1
binder,measurement,setting,value
B1,glycan array binding signal (z-score),[1],0.615
same,glycan array binding signal (z-score),[2],-0.179
same,glycan array binding signal (z-score),[3],-0.195
same,glycan array binding signal (z-score),[4],-0.174
same,glycan array binding signal (z-score),[5],-0.164
same,glycan array binding signal (z-score),[6],-0.204
same,glycan array binding signal (z-score),[7],-0.235
same,glycan array binding signal (z-score),[8],0.048
same,glycan array binding signal (z-score),[9],0.146
same,glycan array binding signal (z-score),[10],-0.21
same,glycan array binding signal (z-score),[11],-0.225
same,glycan array binding signal (z-score),[12],-0.203
same,glycan array binding signal (z-score),[13],-0.24
same,glycan array binding signal (z-score),[14],-0.186
same,glycan array binding signal (z-score),[15],-0.22
same,glycan array binding signal (z-score),[16],-0.133
same,glycan array binding signal (z-score),[17],-0.223
same,glycan array binding signal (z-score),[18],-0.22
same,glycan array binding signal (z-score),[19],0.086
same,glycan array binding signal (z-score),[20],-0.187
same,glycan array binding signal (z-score),[21],-0.234
same,glycan array binding signal (z-score),[22],-0.171
same,glycan array binding signal (z-score),[23],-0.207
same,glycan array binding signal (z-score),[24],-0.24
same,glycan array binding signal (z-score),[25],-0.237
same,glycan array binding signal (z-score),[26],-0.237
same,glycan array binding signal (z-score),[27],-0.14
same,glycan array binding signal (z-score),[28],-0.21
same,glycan array binding signal (z-score),[29],-0.188
same,glycan array binding signal (z-score),[30],-0.13
same,glycan array binding signal (z-score),[31],-0.25
same,glycan array binding signal (z-score),[32],-0.214
same,glycan array binding signal (z-score),[33],-0.212
same,glycan array binding signal (z-score),[34],-0.216
same,glycan array binding signal (z-score),[35],-0.214
same,glycan array binding signal (z-score),[36],-0.22
same,glycan array binding signal (z-score),[37],-0.202
same,glycan array binding signal (z-score),[38],-0.226
same,glycan array binding signal (z-score),[39],-0.221
same,glycan array binding signal (z-score),[40],-0.206
same,glycan array binding signal (z-score),[41],-0.187
same,glycan array binding signal (z-score),[42],-0.221
same,glycan array binding signal (z-score),[43],0.183
same,glycan array binding signal (z-score),[44],-0.222
same,glycan array binding signal (z-score),[45],-0.233
same,glycan array binding signal (z-score),[46],-0.134
same,glycan array binding signal (z-score),[47],-0.226
same,glycan array binding signal (z-score),[48],-0.221
same,glycan array binding signal (z-score),[49],-0.201
same,glycan array binding signal (z-score),[50],-0.197
